Laboratory results published in PubChem BioAssay AID686970 (National Center for Advancing Translational Sciences (NCATS), 2013).
Where “and” joins values, the source holds several entries; their conditions need not be identical. Identical values can stand only once. Screen size: about 360,000 compounds; about 6,000 (1.7%) were called active. This list was built around the results that the source calls inconclusive (neither active nor inactive); the mix of calls is not that of the screen. Calls come from the whole dose curve; as a rule, active = well fitted cell-killing curve with a large enough effect; inconclusive = small, poorly fitted or top-dose-only effect, or effect the other way; inactive = flat fitted curve, though single readings scatter. Potencies of inconclusive entries are doubtful fits and often do not repeat.

Assay: qHTS for induction of synthetic lethality in tumor cells producing 2HG: qHTS for the HT-1080-NT fibrosarcoma cell line;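 note: NT is the 2HG producing partner of a matched IDH1 knockdown line; nearly all actives have a fitted effect of over 55% in size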;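 for activity, negative = less viability: 0% = DMSO-treated cells and -100% = media-only wells without cells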
Details: HT-1080-NT fibrosarcoma viability, CellTiter-Glo ATP luminescence, 48 h; activity, negative = less viability: at 46.1 µM (top of the series) unless noted
Procedure, shortened: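 HT-1080-NT; 750 cells/well; 5% FBS RPMI; 48 h compound, 37 degrees C; CellTiter-Glo luminescence; curve fitting and curve-class assignment.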
Potency is the fitted concentration of half-maximal effect; tags give direction and shape of the fitted curve.

SMILES	Potency	activity, negative = less viability
O=C(NC(Cc1ccccc1)c1nc2ccccc2[nH]1)c1ccc(Cl)c([N+](=O)[O-])c1 (stereo unspecified)	active: 20.6 µM	–
O=C(C1CCCN(c2ncnc3c2nc2n3CCCCC2)C1)N1CCN(c2cccc(Cl)c2)CC1 (stereo unspecified)	inconclusive: 29.1 µM [cytotoxic, single point]	–
COc1ccc(C[C@H]2CN3C(=NC[C@@H]3Cc3ccc(O)cc3)N2CCNC(=O)c2ccc(C)c(Br)c2)cc1	inconclusive: 29.1 µM [cytotoxic, single point]	–
CC1NC(C)c2c(ccc3ccccc23)O1 (stereo unspecified)	–	inconclusive: -17.9% [cytotoxic]
Cc1[nH]c2ccccc2c1/C=N/Nc1nncn1N	inconclusive: 5.8 µM [cytotoxic, single point]	–
COC(=O)c1scc(S(=O)(=O)C(C)C)c1N/N=C(\C#N)C(=O)c1ccc(Cl)cc1	inconclusive: 18.4 µM [cytotoxic, single point]	–
COc1ccc(NC(=O)COC(=O)C2=COCCO2)cc1OC	–	inactive: 0.667%
C=CC[C@H](CC(=O)NCCO)C(=O)N[C@@H](COC(=O)[C@H](CC=C)CC(=O)OC(C)(C)C)Cc1ccccc1	–	inactive: -0.647%
O=C(NC1CCN(C(=O)NCc2ccccc2)CC1)c1ccccc1	–	inactive: 8.64%
CCCOc1cccc(-c2cc(C(=O)NNC(=S)NCC)c3ccccc3n2)c1	inconclusive: 10 µM [cytotoxic, partial curve]	–
Cc1ccc(C)c(C(O)c2ncc(-c3ccccc3F)[nH]2)c1 (stereo unspecified)	–	inactive: 22.3%
CSc1nnc(-c2sc3cc(C(F)(F)F)cnc3c2-c2ccccc2)n1C	inconclusive: 29.1 µM [cytotoxic, single point]	–
N#C/C(=C/c1ccc(N2CCOCC2)o1)c1ccc(Br)cc1	inconclusive: 23.1 µM [cytotoxic, single point]	–
CCC1=NN(C(=O)C(=O)Nc2ccccc2OC)C(O)(C(F)(F)F)C1 (stereo unspecified)	active: 2.82 µM	–
CN(C(=O)c1ccc(NC(=O)Cc2cccc(NC(=O)C3CCCN(C(=O)CCc4ccccc4)C3)c2)cc1)C1CC1 (stereo unspecified)	–	inactive: 0.102%
Cc1cccc(COC[C@H](Cc2ccccc2)N2CCN(C(=O)c3cc(Cl)cc(Cl)c3)CCC2=O)c1	inconclusive: 29.1 µM [cytotoxic, single point]	–
COc1ccc(NC(=O)CSc2c3c(nc4ccccc24)CCCC3)c(OC)c1	inconclusive: 29.1 µM [cytotoxic, partial curve]	–
CC1CC(C)CN(C(=O)CCC(=O)Nc2nnc(C3CCCCC3)s2)C1 (stereo unspecified)	inconclusive: 2.91 µM [rising, partial curve]	–
CC(C)(C)c1ccc(SCCc2cccnc2)cc1	–	inactive: 2.46%
CCc1nc2ccc(C(=O)NCCCN3CCCC3=O)cn2c1N(C)C(=O)C1CCCCC1	inconclusive: 9.2 µM [rising, partial curve, poor fit]	–
CCCCC(=O)Nc1ccc(C(=O)NCCCn2ccnc2)cc1	inconclusive: 22.4 µM [cytotoxic, single point]	–
COCCCNC(=O)CC1C[C@H](C(=O)N(C(C)C)C(C)C)[C@@]2(C)c3[nH]c4ccc(OC)cc4c3CCN2C1=O (stereo partly specified)	–	inactive: 4.37%
CC(Sc1ncnc2sc(-c3ccccc3)cc12)C(N)=O (stereo unspecified)	inconclusive: 23.1 µM [cytotoxic, single point]	–
CC1CCCC(NS(=O)(=O)c2cc(Br)cnc2N)C1C (stereo unspecified)	inconclusive: 13 µM [cytotoxic, partial curve]	–

SMILES	Potency	activity, negative = less viability
CCOC(=O)c1ccc(S(=O)(=O)NC2CCC(C)CC2)cc1 (stereo unspecified)	–	inactive: -2.11%
Cc1cccc(COC(=O)CCCNC(=O)c2ccc(Cl)cc2)c1	–	inactive: 0.595%
Cc1ccccc1-n1c(C)n[nH]c1=S	active: 12.6 µM	–
Cc1ccc(C)c(S(=O)(=O)N2CCC(c3nc4c(nnn4Cc4ccc5c(c4)OCCO5)c(=O)[nH]3)CC2)c1	–	inactive: -27.2%
Cc1ccc2sc(N(CCCN(C)C)C(=O)c3ccc(S(=O)(=O)N4CCCCCC4)cc3)nc2c1C	inconclusive: 18.4 µM [cytotoxic, single point]	–
CCCc1nc2ccc(Cl)cn2c1Cc1cccc(Cl)c1	inconclusive: 29.1 µM [cytotoxic, single point]	–
COC(=O)c1nnn(-c2nonc2N)c1CN1CCc2ccccc21	inconclusive: 32.6 µM [cytotoxic, single point]	–
CCC(C)Sc1ccc(-c2nc3cnccn3c2NC2CCCCC2)cc1 (stereo unspecified)	inactive and inconclusive: 29.1 µM [cytotoxic, single point]	–
O=C(NCc1ccco1)c1cc(-c2cccs2)on1	inconclusive: 15.8 µM [cytotoxic, single point]	–
Cc1ccc(S(=O)(=O)c2c(N)n(Cc3ccco3)c3nc4ccccc4nc23)cc1	inconclusive: 16.4 µM [cytotoxic, single point]	–
CC(Sc1nnc2ccccn12)C(=O)Nc1ccc2c(c1)OCCO2 (stereo unspecified)	inconclusive: 18.4 µM [rising, single point]	–
Cc1cccc(N=c2c([N+](=O)[O-])nn(-c3ccc(Cl)cc3)n2O)c1	–	inactive: 24.3%
COc1ccc2oc(C(=O)Nc3ccc(S(=O)(=O)N(C)C4CCN(C)CC4)cc3)c(C)c2c1	active: 23.1 µM	–
O=C(NC1CCCCCC1)c1ccc([N+](=O)[O-])s1	inconclusive: 18.4 µM [cytotoxic, partial curve, poor fit]	–
Cc1cccc(N(C(=O)c2snc(C(N)=O)c2N)C(C(=O)NCc2ccccc2)c2ccncc2)c1 (stereo unspecified)	active: 18.4 µM	–
O=[N+]([O-])c1ccc(-c2ncc(-c3ccc(Br)cc3)o2)cc1	–	inconclusive: 31.3%
CCOC(=O)[C@@H]1[C@H]2COc3cc(OC)ccc3[C@@H]2N2C(=O)N(c3ccc(OC)cc3)C(=O)[C@@]12C	inconclusive: 29.1 µM [rising, single point]	–
Cc1cc(C)c2nc(-c3ccccn3)cc(C(=O)Nc3cc(C)on3)c2c1	inconclusive: 13 µM [cytotoxic, partial curve]	–
O=C(Nc1ccccc1)C1Cc2c(-c3ccccc3Oc3ccccc3)ccnc2O1 (stereo unspecified)	inconclusive: 29.1 µM [cytotoxic, single point]	–
O=C(NCc1ccccc1)C1c2ccccc2OCC(=O)N1CCc1ccccc1 (stereo unspecified)	–	inactive: 20.5%
C=C[C@]1(C)C=C2C(=O)[C@@]3(O)OC(=O)[C@@]4(CCCC(C)(C)[C@H]34)[C@@]2(O)CC1	active: 2.91 µM	–
CCCCCCC(=O)NC(Nc1ccc(S(N)(=O)=O)cc1)C(Cl)(Cl)Cl (stereo unspecified)	–	inactive: -23.2%
O=C(O)c1ccccc1OC(C(=O)Nc1cc(Cl)cc(Cl)c1)c1ccccc1 (stereo unspecified)	–	inconclusive: -1.51% [cytotoxic]
Cc1sc2ncnc(N3CCC(C(=O)Nc4ccc(S(N)(=O)=O)cc4)CC3)c2c1C	–	inactive: -18.7%

SMILES	Potency	activity, negative = less viability
COc1ccccc1C1C(C(C)=O)=C(O)C(=O)N1c1ccc(O)cc1 (stereo unspecified)	–	inactive: 4.56%
CC1CCC(C(C)C)C(OCC(O)CNC(C)c2ccccc2)C1 (stereo unspecified)	active: 14.6 µM	–
CCOc1ccc(/C=N/NC(=O)Cc2csc(Nc3cccc(C(F)(F)F)c3)n2)c(OCC)c1	inconclusive: 18.4 µM [cytotoxic, single point]	–
COc1ccc(OC)c(-c2cc(C(=O)Nc3cc(C)n(Cc4ccc(Cl)cc4)n3)no2)c1	inconclusive: 3.55 µM [cytotoxic, full curve, poor fit]	–
Cc1cc(C)n(-c2nnc3n2N=C(c2c[nH]c4ccccc24)CS3)n1	inconclusive: 20.6 µM [cytotoxic, partial curve]	–
CCCCc1nc(SCc2ccc([N+](=O)[O-])cc2)n[nH]1	inconclusive: 29.1 µM [rising, single point]	–
CC(C)c1ccc(-c2csc3ncnc(N4CCN(C)CC4)c23)cc1	active: 16.4 µM	–
C=C(C)COc1ccc(-c2[nH]ncc2-c2ccc(Br)cc2)c(O)c1	active: 14.6 µM	–
O=[N+]([O-])c1ccccc1OCCOCCOc1cccc2cccnc12	–	inactive: 0.613%
COc1cccc(C=NNC(=O)c2ccncc2)c1O	inconclusive: 0.92 µM [cytotoxic, full curve]	–
CCOc1cc(/C=C(\C#N)c2nc(-c3cccs3)c(NC(C)=O)s2)ccc1O	active: 3.26 µM	–
CSc1nccc(-c2nn(-c3ccc(C)cc3)ccc2=O)n1	inconclusive: 5.17 µM [cytotoxic, full curve]	–
COc1ccc2c(=O)cc(-c3ccncc3)oc2c1OC	inconclusive: 7.31 µM [cytotoxic, partial curve]	–
CC(=O)Nc1ccc(-c2ccnc3c2CC(C)(C(=O)Nc2cccc(C(F)(F)F)c2)O3)cc1 (stereo unspecified)	inconclusive: 29.1 µM [cytotoxic, partial curve, poor fit]	–
Oc1c(I)cc(Cl)c2cccnc12	inconclusive: 5.8 µM [cytotoxic, full curve]	–
O=C(c1ccc(-c2ccccc2)c(F)c1)C1CCCN(CCCn2cccn2)C1 (stereo unspecified)	–	inactive: -7.12%
O=C(CSC(=S)N1CCOCC1)c1cc2ccccc2oc1=O	–	inactive: -1.66%
O=C(OCC(=O)N1CCc2ccccc21)c1ccc(Cl)nc1	–	inactive: -2.62%
CC(=O)Oc1ccc(C2=NN(c3ccccc3)C(c3ccccc3)C2)cc1 (stereo unspecified)	active: 16.4 µM	–
COc1cc(NC(=O)CSc2nncn2C)c(C)cc1[N+](=O)[O-]	–	inactive: 0.624%
CCOC(=O)C1(CCc2ccccc2)CCN(Cc2nccn2CC)CC1	inconclusive: 29.1 µM [cytotoxic, single point]	–
COCCNC(=O)C1(C)CCCN(C(=O)c2ccccc2F)C1 (stereo unspecified)	inconclusive: 29.1 µM [rising, single point]	–
C/C(=N\NC(=O)c1nnn(-c2nonc2N)c1CN(C)C)c1ccco1	inconclusive: 29.1 µM [rising, single point]	–
